The source of these data is PubChem BioAssay AID1508624 (National Center for Advancing Translational Sciences (NCATS), 2021).

SMILES strings stand for the structures. In all, about 48,000 compounds went through this assay and about 120 (0.25%) were called active. Inconclusive results (about 4%) are left out. The call rests on the fitted dose curve; in most records, active means well fitted activation curve with a large enough effect; inconclusive means small, poorly fitted or top-dose-only effect, or another doubt; inactive means no such curve, though single readings can be large or run the other way. The list shows a part of the results.

The assay can be described thus: Primary qHTS for Identification of Small Molecule Activators of Huntingtin-Antisense Promoter Activity. Further: nearly all actives have a fitted effect of over 55% in size. The following applies: HEK293 HTT-AS promoter firefly luciferase reporter, 24 h; series mostly up to 57.5 µM; activity change, positive = activation: at the top concentration. In a few lines:
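HEK293 cells carrying firefly luciferase reporters were seeded at 2,500 per well in Opti-MEM and cultured for 24 h. They were then treated with compounds at up to 57.5 uM final for 24 h at 37 degrees C before Dual-Glo luminescence readout.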
(In general: qHTS replaces the single test concentration by a dilution series.)
As for `CCc1nnc(NC(=O)C(=O)c2cc(C)n(-c3ccccc3)c2C)s1`, the “activity change, positive = activation” value was inactive: -50.4%.
Under `CC(C)N(Cc1ccccc1)C(=O)Cn1ncc2c([nH]c3ccccc32)c1=O` stands inactive: -19.9%; under `COc1ccc(NC(=O)C(Cc2ccccc2)n2cccc2)cc1OC` (configuration not stated), inactive: -23.8%; under `COc1cc(-c2noc(CCC(=O)Nc3cc(C)ccc3C)n2)cc(OC)c1OC`, inactive: -55.3%.
With `Cc1ccccc1Cn1c2ccccc2c2cnn(CC(=O)NCCc3ccccc3)c(=O)c21`, the “activity change, positive = activation” value is inactive: -17.5%.
With `COc1ccc(NC(=O)CCS(=O)(=O)c2ccc3nc(C)sc3c2)cc1Cl` the figure was inactive: -10.5%; with `Cc1ccc(-n2ncc(C(=O)NCCc3c[nH]c4ccccc34)c2C2CCN(C(=O)OC(C)(C)C)CC2)cc1C`, inactive: -45.6%.
With `Cc1ccccc1C(=O)N(Cc1nc(-c2ccc(Cl)cc2)no1)C(C)C` the figure was inactive: -29.2%; with `CCn1c(=O)c2sccc2n2c(CCC(=O)N3CCN(c4ccc(C(C)=O)cc4)CC3)nnc12`, inactive: -18.7%.
Under `CNC(=O)c1c(NC(=O)/C=C/c2ccccc2Cl)sc2c1CCC2` stands inactive: -12.6%; under `O=C(Cn1c(-c2cccs2)cc2cc(Cl)ccc21)N1CCN(c2ccccc2F)CC1`, inactive: -19.3%.
Regarding `CC(NC(=O)CN(c1ccc(Cl)cc1Cl)S(=O)(=O)c1ccccc1)c1ccccc1` (configuration not stated), the “activity change, positive = activation” value is inactive: -10.3%.
With `COc1ccc(C(=O)c2oc3ccccc3c2NC(=O)COc2cccc(C)c2C)cc1` the figure was inactive: 2.82%; with `CCC(=O)Nc1ccc(CC)cc1-c1nc2ccccc2n(Cc2ccccc2)c1=O`, inactive: -31.9%.
Under `CCCN(CCC)CCCNC(=O)Cn1ncc2c3ccccc3n(Cc3ccccc3)c2c1=O` stands inactive: 1.64%.
For the compound `Cc1ccc(NC(=O)Cc2csc(C)n2)c(C)c1`, the “activity change, positive = activation” value is inactive: 3.13%.
Under `Cc1ccc(C(=O)Nc2ccc(OCc3cc(=O)n4c(C)csc4n3)cc2)cc1` stands inactive: -0.342%; under `Cc1cccc(NC(=O)CSc2nncn2C)c1`, inactive: -5.52%.
With `Cc1ccc(Nc2c(-c3ccc(O)cc3)nc3cccc(C)n23)cc1` the figure was inactive: -16.4%.
As for `Cc1nc(-c2ccc(Cl)cc2)sc1CCNC(=O)c1cccs1`, the “activity change, positive = activation” value was inactive: -6.19%.
Under `CCN(CC)CCN(C(=O)c1ccco1)c1nc2ccc(Br)cc2s1` stands inactive: 0.0373%.
For the compound `CCCOc1ccc(-c2nc(SC)[nH]c(=O)c2C#N)cc1OC`, the “activity change, positive = activation” value was inactive: -27.6%.
Regarding `CC(=O)Nc1nonc1-c1nnc(SCC(=O)Nc2cc(C)cc(C)c2)n1-c1ccccc1`, the “activity change, positive = activation” value is inactive: -28.6%.
With `Cc1ccc(S(=O)(=O)c2c(Nc3cc(F)ccc3F)sc(C(=O)c3ccc(F)cc3)c2N)cc1` the figure was inactive: -40.8%; with `Cc1cc(C)cc(NC(=O)C2CCCN(C(=O)c3cnn(-c4ccccc4)c3-n3cccc3)C2)c1` (configuration not stated), inactive: -37.2%.
With `O=C(CSc1nc2c([nH]c3ccccc32)c(=O)n1-c1ccc(Cl)cc1)N1CCOCC1` the figure was inactive: -9.23%; with `CCC1CCCCN1CC(=O)Nc1cc(C)c2c(=O)oc3ccccc3c2n1` (configuration not stated), inactive: 7.76%; with `Cc1ccc(-c2nonc2NC(=O)c2ccc(F)cc2)cc1C`, inactive: -18%.
With `O=S(=O)(NCC(c1ccco1)N1CCOCC1)c1cc(F)ccc1F` (configuration not stated) the figure was inactive: -16.6%; with `Cc1cccc(NC(=O)CSc2c(C)cnc3c2c(=O)n(C)c(=O)n3C)c1C`, inactive: -5.84%; with `CCc1nn(C(CC)C(=O)NCc2ccc(F)cc2)c(=O)c2cc3occc3n12` (configuration not stated), inactive: -15.4%.
As to `O=C(CCc1ccccc1)N(Cc1cccnc1)c1nc2c(F)cccc2s1`, the “activity change, positive = activation” value is inactive: -28.7%.
Under `COc1cc(C(=O)NCC(c2ccco2)S(=O)(=O)c2ccccc2)cc(OC)c1OC` (configuration not stated) stands inactive: -12.6%; under `NCCCC(N)CC(=O)NCC1NC(=O)C(CO)NC(=O)C(N)CNC(=O)C(C2CCN=C(N)N2)NC(=O)C(=CNC(N)=O)NC1=O` (configuration not stated), inactive: -1% [at 0.74 µM, percent change from vehicle, -100% = no light]; under `CCCOc1ccc(C(=O)N(Cc2ccc(N(C)C)cc2)CC2CCCO2)cc1` (configuration not stated), inactive: -16.7%.
With `CC1=C(C(=O)Nc2ccccc2)C(CC(C)C)n2nc(SCc3ccccc3C)nc2N1` (configuration not stated) the figure was inactive: 3.57%; with `O=C(c1cc2c(s1)-c1ccccc1OC2)N1CCN(c2ccccc2)CC1`, inactive: -4.51%.
With `Cc1ccc(-c2cc(C(=O)Oc3ccccc3)c3cc(C)ccc3n2)cc1` the figure was inactive: 13.7%; with `COc1ccc2c(c1)c1c(c(=O)n(-c3cccc(Cl)c3)c(=O)n1CC(=O)N1CCCC1)n2C`, inactive: -3.29%; with `COc1ccc2nc(NC(=O)c3nc(S(=O)(=O)Cc4cccc(C)c4)ncc3Cl)sc2c1`, inactive: -77.9%.
With `CCC1CCCCN1CCCNC(=O)CN1C(=O)CSc2ccc(S(=O)(=O)N3CCOCC3)cc21` (configuration not stated), the “activity change, positive = activation” value was inactive: -7.07%.
With `Cc1cc(NC(=O)C2CCN(S(=O)(=O)c3ccc4[nH]c(=O)oc4c3)CC2)ccc1Br`, the “activity change, positive = activation” value was inactive: -56.7%.
With `Clc1ccccc1CN1CCc2sccc2C1` the entry was “inactive”; with `CCOC(=O)Cn1nc(C)c(NC(=O)COc2ccc(Cl)cc2C)c1C`, inactive: -37%; with `CCOc1ccccc1NC(=O)Cn1ccn(Cc2ccc(C)cc2)c(=O)c1=O`, inactive: -14.8%.
On to `CCC(C)NC(=O)CSc1nc2c(sc3ccccc32)c(=O)n1Cc1ccccc1Cl` (configuration not stated), for which the “activity change, positive = activation” value was inactive: -1.65%.
With `Cc1ccc(C)c(CSc2nc3ccncc3n2CC(=O)Nc2ccc(N(C)C)cc2)c1` the figure was inactive: -16.7%; with `Cc1cccc2nc(-c3cccc(NS(=O)(=O)c4ccccc4)c3)cn12`, inactive: -15.5%.
Under `Cc1cc(C)c(NC(=O)Nc2ccc3snnc3c2)c(C)c1` stands inactive: -34.1%; under `Clc1ccccc1CNc1ncnc2c1c(-c1ccccc1)cn2-c1ccccc1`, inactive: -19.6%.
Under `Cc1ccc(C)c(Cn2c3ccccc3c3cnn(CC(=O)NCc4ccccc4)c(=O)c32)c1` stands inactive: -5.58%.
On to `COCCCNC(=O)CSc1nc2c(sc3ccccc32)c(=O)n1CCCC(=O)NCCOC`, for which the “activity change, positive = activation” value is inactive: -8.34%.
With `Fc1ccccc1Cn1c(-c2ccccc2)nc2ccccc21` the figure was inactive: -24.3%.
With `CC(=O)c1ccc(NC(=O)COCc2cc(-c3ccco3)on2)cc1` the figure was inactive: -3.12%.
Under `COc1cccc(N2CC(NC(=O)c3cccc(OC)c3OC)CC2=O)c1` (configuration not stated) stands inactive: -12.2%; under `Cc1ccccc1OCc1nnc(SCc2cc(=O)c3cccc(F)c3[nH]2)n1C`, inactive: -27.3%.
As to `COc1ccccc1NC(=O)c1sc2nc3c(cc2c1N)CCCCCC3`, the “activity change, positive = activation” value is inactive: -23.1%.
With `O=C(c1ccccc1)N1c2ncnn2C2(CCCCC2)[C@@H]2CCCC[C@@H]21` the figure was inactive: -30.1%; with `Cc1ccc2c(c1)C(c1ccc(F)cc1)N(C(=O)c1ccc(OC(C)C)cc1)CC(=O)N2` (configuration not stated), inactive: -20.1%.
For `Cc1ccccc1C(=O)Nc1cc(-c2ccc(Cl)cc2)nn1-c1ccccc1`, the “activity change, positive = activation” value is inactive: 18.5%.
Under `Cc1nn(-c2ccc(N3CCOCC3)nn2)c(C)c1CCC(=O)NCc1ccc(F)cc1` stands inactive: 2.83%; under `COc1cc2[nH]c(=O)n(CCCC(=O)N3CCN(c4cccc(C(F)(F)F)c4)CC3)c(=O)c2cc1OC`, inactive: -3.16%.
